Reference: the supplement of paper PMC11417369
± gives the standard deviation of the averaged measurements. This is one part of the list.

System: PfAP2-G AP2 domain (GST-tagged)
Experiment: gcPBM binding intensity (ln(normalized median fluorescence intensity)); higher = stronger DNA binding
In short: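 In this array assay, P. falciparum DNA-binding domains with a GST tag, expressed in E. coli, were applied for 1 h to primer-extended double-stranded 36-bp intergenic genomic probes and negative controls on an Agilent 4 × 180k array. Bound protein was visualised with Alexa488 anti-GST antibody at 488 nm. Binding intensity is the highest Masliner-normalised natural-log median intensity across replicate spots of either probe orientation.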

| Sequence | gcPBM binding intensity (ln) |
| --- | --- |
| AAAATAATTTTATAAGTGCAAAATAGCTTATTTATA | 9.87 ± 0.085 |
| TAAATACATCTATGCACACAAAAAAATATATATTTT [CACACA_site5027] | 10.2 ± 0.18 |
| TGTATAAACTTTACGTGTACATGAATAATCTATAAT [XGTACX_site3801] | 11.5 ± 0.86 |
| TATACGTATTACAGAGTGCAATAAACAGTATATATT | 10.3 ± 0.19 |
| TATGTGCATATAAACTCACACATTGTATATTACATG [CACACA_site6106] | 10.14 ± 0.035 |
| AAGGAAAAGTAAAGAAGTACTGTACCGCCAAAAAAA [XGTACX_site2607] | 11.5 ± 0.82 |
| TTGATGTTGGTAGGATGTACGGTACCGGTAGTATTT [XGTACX_site6642] | 11.4 ± 0.8 |
| AATTTATTTTTTTGATGTACATACAATTTATCACAA [XGTACX_site5936] | 11.4 ± 0.75 |
| AAAATAATAAAAAGGGGTACAAAGAAACAAATATAA [XGTACX_site296] | 11.6 ± 0.97 |
| TTTATTAAAATATTCTCACACACCAAAATATGTATG [CACACA_site932] | 9.9 ± 0.028 |
| ATAAAATAACACAACGTTGACAAATTTGGATGACTC [XGTACX_negctrl_site324] | 10.09 ± 0.014 |
| ATATATGTAGATATATGTACATATATAGGTAGATAT [XGTACX_site7589] | 11.2 ± 0.72 |
| AAAAATTTATTTAAAAGTACATAAAATAAAGGTGGA [XGTACX_site7591] | 11.4 ± 0.69 |
| ACTTTAGAAATAGAGGTGCTATTTTTATTACCACAC | 10.3 ± 0.26 |
| ATTTTAGAATTTAATACACACAAAAAAAAAAAATTA [CACACA_site3704] | 10 ± 0.33 |
| TATTACATTATATAAACATGCAAAACTATATATTAT [TGCATGCA_site601] | 9.76 ± 0.13 |
| AAATGTAATATAAATAGTACATATTAAATAAAATTA [XGTACX_site6917] | 11.1 ± 0.88 |
| TTATAATATGTATACACACACATATATAGATATATA [CACACA_site7159] | 9.97 ± 0.071 |
| ATTCTTTATATGCATACACACCTAATATAGGGACCT [CACACA_site6830] | 10.27 ± 0.057 |
| GTACATAGGTATAGCACACACAAATGTAGGTATTTT [CACACA_site4049] | 10.8 ± 0.39 |
| TGCACAAAGTTATGCACACACCTAAAATTAATTTTT [CACACA_site7385] | 10.05 ± 0.071 |
| TATACACATATATACACACACATATATAAATAAATA [CACACA_site7579] | 10 ± 0.23 |
| ATTATATATAATATAGTGCATGTAAAAAATAAAACA | 10.2 ± 0.18 |

| Sequence | gcPBM binding intensity (ln) |
| --- | --- |
| AAAAAAAAAAAAAAAACACACATAAAAATATAATAA [CACACA_site3855] | 10.2 ± 0.27 |
| TATTTTATTTGTATATTCATTTGTATAATATAAATA [TGCATGCA_negctrl_site267] | 9.86 ± 0.12 |
| AAGAATATTATAAACACACACTTTATAAAGAATTAT [CACACA_site4241] | 9.99 ± 0.085 |
| TATATAATTGTCTTCACACACACATATATATATATA [CACACA_site2744] | 10.1 ± 0.28 |
| TTATATAACATTATTTGTACATATAAAATATGGATG [XGTACX_site8526] | 10.9 ± 0.62 |
| AAAAAAAATTTATGGGGTACATATTATAATATTATA [XGTACX_site3395] | 11.5 ± 0.95 |
| TTAAAATATGAATAATGTACAAGAAATTTTATTAAT [XGTACX_site6314] | 10.9 ± 0.43 |
| ATTATTACATTTTTATGTACATATCAAATTTATACA [XGTACX_site7332] | 11.4 ± 0.82 |
| TTAACTTAAGGAGAGTGTACAAATAATAAAATATCT [XGTACX_site4118] | 10.9 ± 0.52 |
| TATAAATTAAAATGTGTGCACTAAATTGAAATAGAA | 10.5 ± 0.3 |
| ATATATATATATAATAGTACATATATTTTTATTGGT [XGTACX_site711] | 10.9 ± 0.57 |
| ATATTTTTTACAAATTGTACATTTTTACAATTATTA [XGTACX_site7496] | 10.6 ± 0.45 |
| TAACCTAAAATAACTACACACACATAAAAAAAAAAA [CACACA_site8807] | 9.99 ± 0.28 |
| TCACTTAATATTTAATGTACATAAGGTTCTTGTGCC [XGTACX_site1822] | 11.1 ± 0.53 |
| GGAAAATCTTTATAATGTACATTATGATTATATAAT [XGTACX_site6256] | 10.8 ± 0.39 |
| AAATATAAAGTGCACACACACAAAAAAAGAAAAAAA [CACACA_site6452] | 10.5 ± 0.47 |
| GTTTTCATCCAAAAAAGTACATTTATTTTTATACGA [XGTACX_site1039] | 11.3 ± 0.9 |
| GTAGTGGTTGAATATACACACATATATAAATAAATA [CACACA_site7282] | 10.2 ± 0.22 |
| ATGTATGAATTACATAGTACATAAGAAAAAATGAAG [XGTACX_site5942] | 10.9 ± 0.44 |
| TTTGTGTGTACGCGTGTGCACATTTTTTTTTTTTTT | 11.7 ± 0.92 |
| TAAATGTCTTCAATGAAGTGGAAATGCTGTTATATA [CACACA_negctrl_site1155] | 9.875 ± 0.021 |
| TTATTTTTTTTAAATTGTACAAGGAACAGTGAAAAA [XGTACX_site4380] | 11.3 ± 0.81 |
